# Some of the results follow. The energies were worked out here from pooled read counts, against the library average; single values are noisy.
# Molecular target: T1, Pho4 (S. cerevisiae) (UniProt P07270)
# T1 sequence: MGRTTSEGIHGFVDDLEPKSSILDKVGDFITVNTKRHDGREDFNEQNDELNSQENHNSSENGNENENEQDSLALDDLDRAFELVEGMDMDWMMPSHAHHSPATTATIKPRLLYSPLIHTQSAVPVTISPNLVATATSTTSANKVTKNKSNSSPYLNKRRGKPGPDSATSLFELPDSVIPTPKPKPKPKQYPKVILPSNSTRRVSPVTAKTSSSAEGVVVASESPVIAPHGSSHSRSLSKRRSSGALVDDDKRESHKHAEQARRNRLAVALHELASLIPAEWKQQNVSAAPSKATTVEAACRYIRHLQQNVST
# Assay: relative binding free energy (BET-seq); higher = weaker binding
# Conditions: reference: library average
row,Sequence,relative binding free energy [kcal/mol]
1,AATCGCACGTGGTGGG,-0.05
2,TTTTTCACGTGACATG,0.45
3,TCAGGCACGTGTAGAG,-0.1
4,GTGTGCACGTGCGGAG,-0.14
5,TCGTACACGTGAAGGA,0.43
6,GTAATCACGTGGGACG,-0.02
7,TTGTCCACGTGGGGGC,-0.06
8,GTATGCACGTGGGTAC,-0.13
9,TGTTGCACGTGAAAGT,0.15
10,GTGTGCACGTGTTGGA,0.07
11,GTGGTCACGTGCTGGG,0.17
12,GAAATCACGTGTGGTA,0.25
13,CTGGCCACGTGTAGGT,0
14,TAATTCACGTGAAGAG,0.44
15,GTAATCACGTGTCAGG,0.19
16,AGGGACACGTGGCGAG,-0.07
17,TAGTCCACGTGGGTAG,-0.09
18,TGTGGCACGTGCAAAT,-0.08
19,AACATCACGTGGGGTT,0.03
20,GATAACACGTGGCGGG,-0.04
21,AATAGCACGTGTATTT,-0.06
22,GGTATCACGTGAGGAA,0.44
23,CAGTGCACGTGGGGCA,-0.21
24,GTTAGCACGTGAAGTG,0.14
25,GACATCACGTGGTTTT,0.29
26,AACATCACGTGTGTTA,0.19

row,Sequence,relative binding free energy [kcal/mol]
1,ATTAACACGTGGGTAG,-0.18
2,GGTTTCACGTGGGCAG,0.26
3,AGTGTCACGTGATTAG,0.14
4,ATAAGCACGTGTTTTA,-0.16
5,TGCAGCACGTGGGGTT,-0.34
6,AGATGCACGTGTTGAG,0.06
7,TGTGGCACGTGGCCGA,-0.17
8,GGTGGCACGTGTCTAA,-0.03
9,CTTGGCACGTGATGAT,-0.13
10,GGAGGCACGTGGTCCG,-0.16
11,TCGGGCACGTGTTAGT,-0.14
12,GATATCACGTGATAGT,0.26
13,TTGTACACGTGCATTG,-0.04
14,GTCGTCACGTGGGTTA,-0.03
15,CAAGTCACGTGGTTAT,0.12
16,AAGGTCACGTGTTGCT,0.14
17,CGGGGCACGTGAAGGG,0.18
18,AAAGGCACGTGATGTA,-0.04
19,CTGTTCACGTGTTTAA,0.09
20,CAGATCACGTGGGTTT,0.06
21,TGGCTCACGTGGCGTT,0.14
22,ATTGCCACGTGTGCGG,-0.09
23,GGGTACACGTGGTATC,0.05
24,AAGATCACGTGGGAGG,0.05
25,AGTTGCACGTGTTCGT,0
26,ATATACACGTGGCTTT,-0.05

row,Sequence,relative binding free energy [kcal/mol]
1,AGAAGCACGTGGGCAT,-0.18
2,GTGGCCACGTGTATTG,0.03
3,ATGGTCACGTGGAAGA,0.21
4,GTATACACGTGTAAGG,0.02
5,ATAGGCACGTGATCTT,-0.08
6,TTTTTCACGTGGAGAG,0.16
7,GGTCACACGTGTTAGG,0.11
8,AGGGACACGTGTAGTC,0.33
9,TGTTTCACGTGTGAGG,0.25
10,GAGGGCACGTGAGGGT,0.26
11,AGTGTCACGTGGTTTA,0.08
12,CAGGTCACGTGGAGTT,0.24
13,GCGGGCACGTGATATG,0.06
14,AATTGCACGTGTTACG,0.05
15,TTACACACGTGTGGTA,0.01
16,TGCGTCACGTGAAAGG,0.24
17,TATCTCACGTGCGGTT,0.21
18,TGGTCCACGTGCGGTG,-0.07
19,TGATTCACGTGATGTG,0.39
20,TTTGGCACGTGCTGCT,-0.23
21,ACGTGCACGTGGCTGG,-0.21
22,GGTGACACGTGTTGCA,0.22
23,CGTCGCACGTGGGGAG,-0.12
24,TTTGGCACGTGTTTCG,-0.01
25,TGAGTCACGTGGAGAT,0.1
26,TTAACCACGTGTGGTA,-0.11

row,Sequence,relative binding free energy [kcal/mol]
1,GCAAACACGTGGGGTG,-0.19
2,TGGTTCACGTGGTAGT,0.25
3,GGGAACACGTGTCGGT,0.13
4,TTGGCCACGTGGGTAA,-0.2
5,TCAGACACGTGTGTGT,-0.07
6,ATTCTCACGTGGGTTA,0.16
7,TATTACACGTGTTCTT,0.17
8,AAGATCACGTGTTTAT,-0.02
9,TTTTGCACGTGAGCAT,0.12
10,AGCTGCACGTGGTGCG,-0.22
11,GACTGCACGTGAGTGT,0.25
12,CTTTTCACGTGTAATA,0.39
13,GGTTACACGTGGGTGC,0
14,GTAGGCACGTGCAGAG,-0.08
15,TTGCGCACGTGTGGCA,-0.06
16,TGGTGCACGTGATGTG,0.11
17,AACATCACGTGTGTGG,0.14
18,AGTAACACGTGGGTAG,-0.14
19,TTCATCACGTGTGGTA,0.17
20,GTACGCACGTGGTTGG,-0.1
21,TAGTACACGTGTAATG,0.1
22,ATGAACACGTGATGGT,0.2
23,TGGTGCACGTGGATGG,0.08
24,GAAAGCACGTGGTATG,-0.12
25,TGGCGCACGTGATCTG,0.1
26,GGTGGCACGTGATAGC,0.01

row,Sequence,relative binding free energy [kcal/mol]
1,TCCTGCACGTGGGTAT,-0.11
2,TAACTCACGTGTGCGG,0.18
3,GGGCTCACGTGGATTA,0.32
4,GTAGGCACGTGTGTAT,-0.03
5,TTGGCCACGTGGAGGC,-0.17
6,CGGGTCACGTGTCGCG,0.15
7,ATGTCCACGTGATGGT,0.13
8,TTATACACGTGTTTCT,-0.14
9,TGCGTCACGTGGATAT,0.19
10,TTTATCACGTGCTGCG,0.03
11,GTAGTCACGTGGACTG,0.28
12,TTCTTCACGTGGCGCG,0.32
13,AAGAGCACGTGAGTGG,0.16
14,AGGCACACGTGGATGT,0.11
15,CATAGCACGTGTGTGG,-0.02
16,AAAATCACGTGTTGCA,0.43
17,TAAGTCACGTGCGGCT,0.06
18,GTGACCACGTGAGTGG,0.09
19,TAATGCACGTGGAGTT,0.18
20,GGATGCACGTGTGGAT,0.16
21,AATTACACGTGGAGGT,0.26
22,GATTTCACGTGGCTGG,0.37
23,TGAGACACGTGGGGGT,-0.05
24,CTTTTCACGTGTTGTA,0.21
25,ATATTCACGTGGGAAA,0.18
26,AAGTGCACGTGGGGCC,-0.12

row,Sequence,relative binding free energy [kcal/mol]
1,TTAGACACGTGGTTAG,0.08
2,TGCGGCACGTGCTGGT,-0.32
3,TATGTCACGTGGTGTT,-0.04
4,GTTCTCACGTGTTGTG,0.24
5,GTGGGCACGTGTCTGA,0.01
6,TTAGTCACGTGCTTGC,0.13
7,GGTGTCACGTGGTAAA,0.11
8,AGGGCCACGTGGATGG,-0.15
9,TGTAGCACGTGTGAGG,-0.02
10,AGATGCACGTGGAGCT,0.04
11,GTAGGCACGTGTGGAT,0.1
12,TTTGTCACGTGGGTTG,-0.09
13,CCGGGCACGTGGGGCC,-0.13
14,GTCTTCACGTGGTAGC,0.32
15,CTCAGCACGTGTTGGG,-0.02
16,TCGCACACGTGGTGGG,0.08
17,TATCGCACGTGGGAGG,-0.12
18,AGGAACACGTGGGATG,-0.14
19,TTTGACACGTGAAGTA,0.16
20,CTCGTCACGTGGTGGT,0.09
21,TTGTTCACGTGACTTT,0.23
22,TGTCGCACGTGGTATA,-0.21
23,CGCTTCACGTGAGGGG,0.38
24,GTAGGCACGTGGCGCG,-0.1
25,GGTGCCACGTGAAAGG,0.3
26,TCTGGCACGTGTCTGG,-0.11

row,Sequence,relative binding free energy [kcal/mol]
1,CTGGGCACGTGTTGGC,-0.02
2,ATATGCACGTGTCAAT,0.03
3,GAAAGCACGTGATGGG,0.21
4,TTCTTCACGTGTGATG,0.3
5,GAGAGCACGTGCTGTG,-0.05
6,AGAAACACGTGCGTGG,0.03
7,GTCGGCACGTGGGTTG,-0.04
8,TAGTGCACGTGGAGTA,-0.09
9,CCATGCACGTGGGGGG,-0.28
10,GGTCGCACGTGGCGTA,-0.13
11,GGAGGCACGTGAGGTA,0.09
12,TGATGCACGTGGGTAT,-0.11
13,AATGTCACGTGGTCTA,-0.08
14,CTGAGCACGTGAGTGG,0.13
15,CAGGTCACGTGGCTTG,0.05
16,GTAGTCACGTGGGAAT,0.14
17,AGAGGCACGTGGGGTA,-0.2
18,TCATTCACGTGCGGGT,0.3
19,GTGTTCACGTGATAAG,0.27
20,TTCTTCACGTGGTGAT,0.29
21,GTATGCACGTGAGTAG,0.22
22,GCATGCACGTGAGGTT,0.18
23,GACGTCACGTGATTGG,0.35
24,GTTACCACGTGTCTGT,0.11
25,ATGAGCACGTGAATGT,0.12
26,TGGGACACGTGATAAT,0.14

row,Sequence,relative binding free energy [kcal/mol]
1,ATGAGCACGTGGGGTT,-0.2
2,GGTGGCACGTGTTATT,-0.01
3,GTTTACACGTGGTAAT,0.06
4,TTACACACGTGTATGG,-0.07
5,CTATGCACGTGGGAAG,-0.11
6,TGTATCACGTGTCTGG,0.21
7,TGCGACACGTGAGTTG,0.18
8,GGATTCACGTGTCGGG,0.27
9,GTGGGCACGTGGGCCA,-0.41
10,CGAGGCACGTGGGTGA,-0.23
11,TGGTCCACGTGGGGAG,-0.06
12,GTATACACGTGACGTT,0.29
13,GGTGTCACGTGAAGAT,0.17
14,GTGAACACGTGAGGAA,0.29
15,TTACTCACGTGTTGTT,0.15
16,AATTGCACGTGTGTGG,0.02
17,GTAGTCACGTGATGTG,0.24
18,TTTTTCACGTGCTATC,0.36
19,AGGTTCACGTGCAGGG,0.13
20,GGTGTCACGTGGATGT,0.1
21,ACTGACACGTGCGGGG,-0.12
22,ATGATCACGTGAGATA,0.56
23,TTGTACACGTGTTAAA,-0.04
24,CGTATCACGTGATTAT,0.31
25,CTTCGCACGTGGGTTA,-0.16
26,TCTCGCACGTGTGGTT,0.07

row,Sequence,relative binding free energy [kcal/mol]
1,ATCGGCACGTGTTTAT,-0.03
2,CTTATCACGTGGGCTT,0.03
3,CTGGGCACGTGCAGTT,-0.03
4,TGAGGCACGTGACGGT,-0.05
5,TAGGACACGTGAAGGT,0.29
6,CGTGACACGTGAGTGG,0.15
7,GTCTTCACGTGGGTGG,0.15
8,CGTAACACGTGATTGT,0.12
9,ATTAGCACGTGGTCCG,-0.08
10,TTCATCACGTGGATGT,0.11
11,GCGTACACGTGGGAGT,0.04
12,GATTTCACGTGGTCGT,0.21
13,GTTTACACGTGTAAAG,0.27
14,CGGTACACGTGGCGGG,-0.03
15,ATAATCACGTGTTTAG,-0.01
16,CATTGCACGTGTTGTT,-0.12
17,TGTTTCACGTGTTCAT,0.23
18,GTTATCACGTGAATAT,0.28
19,GGTTTCACGTGAAGGG,0.38
20,GTACTCACGTGTTGAG,0.2
21,TATTGCACGTGGCAGT,-0.07
22,TGATGCACGTGAGCGG,0.15
